# PubChem BioAssay AID588591 (National Center for Advancing Translational Sciences (NCATS), 2011)
# The campaign covered roughly 390,000 compounds. About 4,700 (1.2%) were called active. Inconclusive results, whose numbers are uncertain, are shown with a selection of clear calls. Calls come from the whole dose curve; as a rule, active = well fitted inhibition curve with a large enough effect; inconclusive = small, poorly fitted or top-dose-only effect, or another doubt; inactive = no such curve, though single readings can be large or run the other way. Potencies of inconclusive entries are doubtful fits and often do not repeat.
# Target: DNA polymerase eta (Homo sapiens) (UniProt Q9Y253)
# Assay: qHTS for Inhibitors of Polymerase Eta
# Settings: recombinant Pol eta, fluorescent DNA replication assay; series mostly up to 114 µM; activity change, negative = inhibition: at the top concentration
# In short: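 Pol eta at 10 nM preincubated with compounds 15 min at room temperature; reaction started with fluorescent substrate (50 nM final) and read kinetically at 0 and 10 min.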
# % is set by controls: 0 for no effect and ±100 for the full control effect; potency is the fitted concentration of half-maximal effect; tags give direction and shape of the fitted curve.
# Chain of UniProt Q9Y253 (Q9Y253 whole entry, looked up): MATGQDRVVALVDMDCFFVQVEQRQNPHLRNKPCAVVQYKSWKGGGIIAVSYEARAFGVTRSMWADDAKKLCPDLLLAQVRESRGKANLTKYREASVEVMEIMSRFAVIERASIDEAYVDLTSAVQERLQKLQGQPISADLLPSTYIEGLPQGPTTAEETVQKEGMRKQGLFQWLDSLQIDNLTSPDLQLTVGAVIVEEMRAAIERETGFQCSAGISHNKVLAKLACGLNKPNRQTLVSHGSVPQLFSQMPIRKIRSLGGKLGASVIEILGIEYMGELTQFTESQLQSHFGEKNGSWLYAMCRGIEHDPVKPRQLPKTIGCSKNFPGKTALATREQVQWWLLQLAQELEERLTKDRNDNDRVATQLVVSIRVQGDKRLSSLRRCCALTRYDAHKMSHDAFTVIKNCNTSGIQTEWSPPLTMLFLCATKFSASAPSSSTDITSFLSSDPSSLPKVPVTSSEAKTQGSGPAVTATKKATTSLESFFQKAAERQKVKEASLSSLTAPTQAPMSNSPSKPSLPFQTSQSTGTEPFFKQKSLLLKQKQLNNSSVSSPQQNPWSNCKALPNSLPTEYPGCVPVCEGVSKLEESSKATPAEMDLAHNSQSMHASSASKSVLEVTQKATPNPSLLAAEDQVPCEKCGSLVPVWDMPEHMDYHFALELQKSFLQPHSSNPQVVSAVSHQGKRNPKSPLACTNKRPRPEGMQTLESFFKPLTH
Structure (SMILES),"activity change, negative = inhibition",Potency
O=S(=O)(Nc1cc(Sc2cccc3cccnc23)c(O)c2ccccc12)c1ccc(F)cc1,inactive: -2.87%,
CCN1CCC(O)(/C=C/c2ccc(C)cc2)C(C(=O)/C=C/c2ccc(C)cc2)C1 (centres undefined),,"inconclusive: 31.6 µM [inhibitor, partial curve, poor fit]"
N#Cc1c(-c2ccccc2)nc(SCc2cccc(C(F)(F)F)c2)[nH]c1=O,,active: 89.1 µM
O=C(NNC(=O)c1cccc(-n2cccc2)c1)c1ccc(F)cc1,,active: 14.1 µM
COc1ccc(NC(=O)CSc2nnc(Cc3ccc(C)cc3)c(=O)n2N)cc1OC,,"inconclusive: 28.2 µM [inhibitor, partial curve, poor fit]"
Cc1nn(-c2ccccc2)c2c1C(c1ccncc1)C(C#N)=C(N)O2 (centres undefined),inactive: -8.82%,
COc1ccc(S(=O)(=O)Nc2cccc(N(C)S(C)(=O)=O)c2)cc1Br,,"inconclusive: 100 µM [inhibitor, partial curve, poor fit]"
Cc1ccc(/C=c2\sc3nc(-c4cccs4)nn3c2=O)o1,,"inconclusive: 100 µM [inhibitor, partial curve, poor fit]"
COc1cc(CCNC2=CC(=O)c3ncccc3C2=O)ccc1O,,active: 15.8 µM
Cc1ccc(-c2csc(NC(=O)c3ccno3)n2)cc1,,active: 44.7 µM
Cc1nc2ccc(S(=O)(=O)N(CC(=O)Nc3ccc(F)cc3)Cc3ccccc3)cc2s1,inactive: -16.1%,
Cc1ccc(NC(=O)CSc2nc3ccccc3c3nc(CCc4c(C)n[nH]c4C)nn23)cc1F,,"inconclusive: 89.1 µM [inhibitor, partial curve, poor fit]"
O=C(O)C1CCN(C(=O)COc2ccc3c4c(c(=O)oc3c2)CCC4)CC1,,"inconclusive: 25.1 µM [inhibitor, single point]"
O=C1CCC/C(=N/NC(=O)c2ccc(CN3c4cccc5cccc(c45)S3(=O)=O)cc2)C1,,"inconclusive: 50.1 µM [inhibitor, partial curve]"
O=C(NCCCN1CCOCC1)c1cnn2c(-c3ccccc3)cc(-c3ccccc3)nc12,,"inconclusive: 25.1 µM [inhibitor, partial curve, poor fit]"
Nc1nc(=O)n(C2CCCO2)cc1Br (centres undefined),inactive: -13.7%,
O=C(N/N=C/C(Cl)=C/c1ccc([N+](=O)[O-])cc1)C(=O)Nc1ccccc1C(=O)O,,active: 44.7 µM
COc1cc(OC)c(NC(=O)N2CCSc3ccccc32)cc1Cl,,"inconclusive: 79.4 µM [inhibitor, partial curve, poor fit]"
CN(C)c1ccc2cc(S(=O)(=O)O)cc(O)c2c1,,active: 10 µM
COc1ccccc1OCCSc1nc(-c2ccc(C(C)(C)C)cc2)nc2cc(=O)[nH]n12,,"inconclusive: 89.1 µM [inhibitor, single point]"
O=C(Nc1ncccn1)C1CCCN1S(=O)(=O)c1ccc(Cl)c(Cl)c1 (centres undefined),,active: 79.4 µM
COc1ccc(-n2c(C)nc3c(cnn3-c3ccc(Cl)cc3)c2=O)cc1,,"inconclusive: 79.4 µM [inhibitor, partial curve, poor fit]"

Structure (SMILES),"activity change, negative = inhibition",Potency
O=C(COC(=O)/C=C/c1ccco1)Nc1ccc(F)cc1Cl,,"inconclusive: 50.1 µM [inhibitor, partial curve]"
CCOc1ccc(CCNC(=O)CN(C)S(=O)(=O)c2cccs2)cc1OCC,inactive: -10.6%,
Cc1cc(C(=O)COC(=O)c2ccco2)c(C)n1Cc1ccco1,,"inconclusive: 22.4 µM [inhibitor, full curve, poor fit]"
CCOC(=O)N1CCc2c(sc3c2c(=O)n(-c2ccccc2)c(=O)n3CC(=O)Nc2ccc(OC)cc2OC)C1,inactive: 1.56%,
COC(=O)CNC(=O)c1ccc(C)s1,,"inconclusive: 28.2 µM [inhibitor, partial curve, poor fit]"
O=C(O)c1ccc2oc(=O)c(S(=O)(=O)c3ccc(F)cc3)cc2c1,inactive: -22.1%,
COc1ccccc1CNC(=O)c1ccc(Cn2c(SCc3ccccc3)nc3cccnc32)cc1,inactive: -9.3%,
COC(=O)Cc1nc(NC(=O)c2cccs2)sc1C,inactive: -12.5%,
CCC(=NNS(=O)(=O)c1ccc(C)cc1)c1ccc(OC)c(C)c1,,"inconclusive: 89.1 µM [inhibitor, partial curve, poor fit]"
Cc1ccc(N2NC(=O)/C(=C/c3ccc(-c4ccc(Cl)c(C(=O)O)c4)o3)C2=O)cc1C,,"inconclusive: 31.6 µM [inhibitor, full curve]"
CC(=O)N1CCN(S(=O)(=O)c2cccc(C(=O)OCC(=O)NCc3ccccc3Cl)c2)CC1,inactive: 2.44%,
CCOc1ccc(C2=CC(c3cccc(Br)c3)n3c(nc4ccccc43)N2)cc1Cl (centres undefined),inactive: -16.9%,
NNc1nccc(Nc2ccccc2C(=O)O)n1,,active: 12.6 µM
O=C(Nc1ccc2oc(-c3cc(Br)ccc3Cl)nc2c1)c1cc2ccccc2o1,,"inconclusive: 100 µM [inhibitor, partial curve, poor fit]"
COc1cccc(NC(=O)CN(C)C(=O)c2cccnc2Nc2cccc(C(F)(F)F)c2)c1,,"inconclusive: 89.1 µM [inhibitor, partial curve, poor fit]"
CN(C)c1cccc(C(=O)NC2CCCCCC2)c1,,"inconclusive: 39.8 µM [inhibitor, partial curve, poor fit]"
CCOc1ccc(NC(=O)C2CCN(C(=O)N3CC(C)Oc4ccc(Cl)cc43)CC2)cc1 (centres undefined),inactive: -8.17%,
CCCn1c(CN2CCN(c3ccc(OC)cc3)CC2)nc2c1c(=O)[nH]c(=O)n2C,inactive: 0.607%,
Cc1nnc(NC(=O)C2CCN(S(=O)(=O)c3ccc(F)c(Cl)c3)CC2)o1,inactive: 1.51%,
COc1ccc(NC(=O)NNC(=O)C(C)Oc2ccc3ccccc3c2)cc1OC (centres undefined),,"inconclusive: 22.4 µM [inhibitor, single point]"
CCCSCCCNC(=O)Cn1c(=O)c2cccn2c2ccccc21,,"inconclusive: 39.8 µM [inhibitor, partial curve, poor fit]"
CC(=O)N1CCOc2ccc(S(=O)(=O)N3CCN(c4cccc(C(F)(F)F)c4)CC3)cc21,,"inconclusive: 28.2 µM [inhibitor, partial curve, poor fit]"
